Test results reported in PubChem BioAssay AID504832 (National Center for Advancing Translational Sciences (NCATS), 2011).
The campaign covered roughly 310,000 compounds. About 18,000 (5.8%) were called active. This list was built around the results that the source calls inconclusive (neither active nor inactive); the mix of calls is not that of the screen. Calls follow the shape of the dose curve; as a rule, active = well fitted inhibition curve with a large enough effect; inconclusive = small, poorly fitted or top-dose-only effect, or another doubt; inactive = no such curve, though single readings can be large or run the other way. Potencies of inconclusive entries are left out as doubtful fits.

Assay: Primary qHTS for delayed death inhibitors of the malarial parasite plastid, 48 hour incubation
Details: P. falciparum luciferase growth in erythrocytes; series mostly up to 28.7 µM; activity change, negative = inhibition: at the top concentration
Summary of the method: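 Here the parasites carry a stable luciferase gene and grow inside erythrocytes in Albumax-based RPMI medium with compound for one erythrocytic cycle. Activity is scored as loss of luminescent signal.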
% is scaled to controls: 0 for no effect and ±100 for the full control effect; potency is read from the fitted curve at half-maximal effect; tags tell the direction and shape of the fitted curve.

| SMILES | Potency | activity change, negative = inhibition |
| --- | --- | --- |
| COc1ccc(-c2nnc(SCc3csc(N)n3)n2C)cc1 | inconclusive [inhibitor, single point] |  |
| CC(C)CC(c1nnnn1C(C)(C)C)N1CCN(Cc2ccccc2)CC1 (stereo not given) | inconclusive [inhibitor, partial curve, poor fit] |  |
| CN(C)S(=O)(=O)c1cccc(-c2nn(-c3ccccc3)cc2/C=C(\C#N)c2nc3ccccc3[nH]2)c1 | active: 2.08 µM |  |
| O=C(O)C/C(=C\c1cccc(NC(=O)c2ccccc2Cl)c1)c1nc2ccccc2s1 |  | inactive: -8.46% |
| CC(=O)Nc1cccc(Oc2ccc3c(c2)C(=O)NC3=O)c1 |  | inactive: 16.7% |
| COc1ccccc1N1C(=O)NC(=O)/C(=C/c2ccc3c(c2)Cc2ccccc2-3)C1=O |  | inactive: 13.1% |
| O=C(Nc1cccc(S(=O)(=O)N2CCCC2)c1)c1cc(=O)[nH]c2ccccc12 | inconclusive [inhibitor, single point] |  |
| Cc1ccc(C2=NN(S(C)(=O)=O)C(c3ccc4nccnc4c3)C2)cc1 (stereo not given) |  | inactive: 99.5% |
| CCC(c1nnnn1CCc1ccccc1)N(Cc1ccco1)Cc1cc2c(C)ccc(C)c2[nH]c1=O (stereo not given) | inconclusive [inhibitor, partial curve, poor fit] |  |
| C/C=C/C=C/C(=O)OC(C)C(=O)Nc1cc([N+](=O)[O-])ccc1OC (stereo not given) |  | inactive: 4.5% |
| Cc1ccc(S(=O)(=O)N2CCN(C(=O)CCCN3C(=O)NC4(CCCC4)C3=O)CC2)cc1C |  | inactive: 0.709% |
| COc1ccc(C(=O)COC(=O)CCS(=O)(=O)c2ccc(C)cc2)c(OC)c1 | inconclusive [inhibitor, single point] |  |
| CC(C)CCNC(=O)c1onc(CSc2nc3ccccc3[nH]2)c1C(=O)NCCC(C)C | inconclusive [inhibitor, full curve] |  |
| CC(NC(=O)CSc1ncccn1)c1ccc(Cl)cc1Cl (stereo not given) |  | inactive: -13.7% |
| Cc1cc(-n2c(C)cc(C(=O)COc3cccnc3[N+](=O)[O-])c2C)no1 | inconclusive [inhibitor, partial curve] |  |
| Cn1c(C23CC4CC(CC(C4)C2)C3)n[nH]c1=S | inconclusive [inhibitor, partial curve, poor fit] |  |
| COc1c(C(=O)Nc2ccc(Cc3ccncc3)cc2)ccc2ccccc12 | inconclusive [inhibitor, single point] |  |
| O=C(Nc1ccc2nc(-c3ccco3)c(-c3ccco3)nc2c1)N1CCCCCC1 | inconclusive [inhibitor, single point] |  |
| CCC1=C(OC(=O)N(CC)CC)N2C(=O)OC(=NCC3CC3)[C@]2(Cc2ccccc2)[C@H]2C1=CC[C@H]1C(=O)N(C)C(=O)[C@H]12 | active: 10.4 µM |  |
| CC(C)CNC(=O)c1cccc(NC(=O)c2ccc3c(c2)C(=O)N(C)C3=O)c1 |  | inactive: 0% |
| COc1ccc(CCNC(=O)C(=O)NCC2OCCN2S(=O)(=O)c2ccc(Cl)cc2)cc1OC (stereo not given) | inconclusive [inhibitor, full curve, poor fit] |  |
| CCN1C(=O)c2ccccc2Sc2ccc(C(=O)NCCCN3CCOCC3)cc21 | inconclusive [inhibitor, single point] |  |
| NC(=O)Cn1c(=O)n(C2CCCCC2)c(=O)c2c3c(sc21)CCCCC3 | inconclusive [inhibitor, partial curve, poor fit] |  |
| Nc1ccc(Br)c2c1C(=O)c1ccccc1C2=O | inconclusive [inhibitor, full curve, poor fit] |  |

| SMILES | Potency | activity change, negative = inhibition |
| --- | --- | --- |
| COc1ccc(C=O)cc1COc1ccc2c(c1)OCO2 |  | inactive: 10.8% |
| Cc1nn(CC(=O)O)c(=O)c2ccccc12 |  | inactive: 9.71% |
| Nn1c(SCc2nc3ccccc3[nH]2)nnc1-c1ccccc1 |  | inactive: 42.3% |
| N#C/C(=C\c1c(F)cccc1Cl)C(=O)NC1CC1 |  | inactive: -15.6% |
| CCNC(=S)N1CCC(c2nc3cc(C)c(C)cc3[nH]2)CC1 | inconclusive [inhibitor, partial curve, poor fit] |  |
| COc1cccc(-c2ccc(C#N)c(SCC(=O)NCCc3cccc(Cl)c3)n2)c1 | inconclusive [inhibitor, single point] |  |
| COC(=O)[C@@H]1C[C@H]2CC[C@H](O)C[C@H]2N1Cc1ccc(C(F)(F)F)cc1 | inconclusive [inhibitor, single point] |  |
| Cc1c(N2C(=O)/C(=C\c3ccc(N(C)C)cc3)N(C)C2=S)c(=O)n(-c2ccccc2)n1C |  | inactive: 2.36% |
| CN(Cc1ccccc1)C(=O)c1ccc(NC(=O)Cc2cccc(NC(=O)C3CCN(C(=O)C4CCC4)CC3)c2)cc1 | inconclusive [inhibitor, single point] |  |
| CCSc1nnc(CSc2ncccn2)n1C | inconclusive [inhibitor, full curve, poor fit] |  |
| CCN(CC)S(=O)(=O)c1cc(C(=O)N(C)CC(=O)Nc2ccc(Cl)cc2)ccc1Cl | inconclusive [inhibitor, single point] |  |
| Cn1ncc(Cl)c1C(=O)NNC(=O)Nc1cccc2ccccc12 |  | inactive: 4.5% |
| CCOc1ccc(NC(=O)c2cccc(NC(=O)c3ccccc3)c2)cc1 | inconclusive [inhibitor, partial curve, poor fit] |  |
| O=c1c2ccccc2nc(/C=C/c2ccc([N+](=O)[O-])o2)n1-c1ccc(O)cc1 | active: 9.28 µM |  |
| CSc1nc(-c2ccco2)nn1S(C)(=O)=O |  | inactive: 0.458% |
| CCNc1nc(NCC)nc(N/N=C/c2ccc(Br)cc2)n1 | inconclusive [inhibitor, partial curve] |  |
| CC(C)Cn1c(N)c(C(=O)COC(=O)c2c(O)c(Cl)cc(Cl)c2Cl)c(=O)n(C)c1=O |  | inactive: 16.8% |
| Cc1ccc2nc(N3C(=O)C(O)=C(C(=O)c4ccc(C)o4)C3c3ccco3)sc2c1 (stereo not given) |  | inactive: 51.7% |
| S=c1[nH]cnc2scc(-c3ccc(Br)cc3)c12 | inconclusive [inhibitor, single point] |  |
| COc1ccc(CCNC(=O)CSc2nc3[nH]ncc3c(=O)n2-c2ccc(Cl)cc2Cl)cc1OC | inconclusive [inhibitor, single point] |  |
| Cc1ccc(S(=O)(=O)CCC(=O)Nc2nnc(CC(C)C)s2)cc1 |  | inactive: -11.3% |
| CCn1cc(C(=O)NCCN(C)CCc2ccccc2)c(=O)c2cc(S(=O)(=O)N(C)C)ccc21 | inconclusive [inhibitor, partial curve, poor fit] |  |
| CCN(CC)CCOC(=O)c1ccc(N/C=C(/C#N)c2nc(-c3ccc4c(c3)OCO4)cs2)cc1 | active: 1.04 µM |  |
| Cc1cccc(C)c1NC(=O)COc1cccc(/C=N/NC(=O)C(=O)NCc2ccccc2)c1 | inconclusive [inhibitor, partial curve, poor fit] |  |

| SMILES | Potency | activity change, negative = inhibition |
| --- | --- | --- |
| N#C/C(C(=O)N1CCCC1)=C1/N=C(N)c2ccccc21 |  | inactive: -0.564% |
| CCc1ccc(NC(=O)C(=O)NCC2CCCN2S(=O)(=O)c2ccccc2)cc1 (stereo not given) | inconclusive [inhibitor, single point] |  |
| COc1ccccc1OCC#CCN1CCCCCC1 |  | inactive: 20.3% |
| CCn1c(=O)cc(O)c2c(=O)n(C)c(=O)n(C)c21 | inconclusive [inhibitor, single point] |  |
| O=C(CCNC(=O)c1ccco1)Nc1ccc(F)c(Cl)c1 | inconclusive [inhibitor, partial curve, poor fit] |  |
| COc1cc2c(cc1/C=C/[N+](=O)[O-])OCO2 | inconclusive [inhibitor, single point] |  |
| CN1Cc2cc(C(=O)c3ccccc3O)cnc2NC1=O | inconclusive [inhibitor, full curve, poor fit] |  |
| CCOC(=O)c1c(NC(=O)/C=C/C(=O)O)sc(C)c1-c1ccc(C)c(C)c1 | active: 9.28 µM |  |
| COCCN1CC(=O)N2C(c3cccc(C)c3)c3[nH]c4ccccc4c3C[C@H]2C1=O (stereo not given in full) | active: 13.1 µM |  |
| CC(Cc1ccccc1Sc1ccccc1)N(C)C (stereo not given) | inconclusive [inhibitor, single point] |  |
| C/C=C/Cn1c(SCCCc2ccccc2)nc2c1c(=O)[nH]c(=O)n2C | inconclusive [inhibitor, full curve, poor fit] |  |
| CN1N=C2c3ccccc3CCC2C1c1ccc(C(F)(F)F)cc1 (stereo not given) | inconclusive [inhibitor, full curve] |  |
| N/C(=N\OC(=O)CCC1CCCC1)c1cccnc1 |  | inactive: 37.9% |
| CCN(c1cccc2ccccc12)S(=O)(=O)c1ccc(Cl)nc1 | inconclusive [inhibitor, partial curve, poor fit] |  |
| CCCc1nn(C)c2c(=O)[nH]c(-c3cc(S(=O)(=O)N(CCO)CCO)ccc3OCC)nc12 | inconclusive [inhibitor, full curve, poor fit] |  |
| CCOc1ccccc1N(C)C(=O)c1ccc2c(=O)n3c(nc2c1)CCCCC3 | inconclusive [inhibitor, single point] |  |
| Cc1cc(/C=C(\C#N)C(=O)NCc2ccco2)c(C)n1C1CCCC1 |  | inactive: 17.1% |
| Cc1nnsc1C(=O)NNc1ccc(C(C)C)cc1 |  | inactive: 125% |
| Clc1cccc(-c2nc(NCc3cccnc3)c3ccccc3n2)c1 | inconclusive [inhibitor, single point] |  |
| CCC(C)(C)NC(=O)C(c1cccc(OC)c1OC)N(Cc1ccccc1)C(=O)CCC(=O)Nc1cc(C)on1 (stereo not given) | inconclusive [inhibitor, partial curve] |  |
| CCC(Br)C(=O)Nc1ccc(OC)cc1 (stereo not given) |  | inactive: -0.808% |
| CN(CC(=O)NCCc1ccc(S(N)(=O)=O)cc1)CC(=O)Nc1cccc(F)c1 |  | inactive: -7.08% |
